From patent EP0589484A1, “1,2-Ethanediol derivative and salt thereof, process for producing the same, and cerebral function-improving agent comprising the same” (TOYAMA CHEMICAL CO., LTD., priority 1989, dated 1990)
Structures can show the parent of a compound that is named as a salt. At least one read-out could not be matched to a standard name with certainty.

Each compound was assayed on ddY male mouse (assay: Electroconvulsive shock (ECS)-induced amnesia, step-through passive avoidance task). Details: dosage 3 mg/Kg intraperitoneally, median response latency of 10 mice.
Assay type: in vivo
In the case of OC(COCCN1CCCCC1)c1ccc(Oc2ccccc2)cc1 (stereo not drawn) [compound 76], the Antiamnesic activity is reported as “++ (++ : 101-150 seconds)”.
With CN(C)CCOCC(O)c1ccoc1 (stereo not drawn) [compound 316] the Antiamnesic activity was “+ (+ : 61-100 seconds)”.
For OC(COCCN1CCCCC1)c1cccc2ccccc12 (stereo not drawn) [compound 237], the Antiamnesic activity was “++ (++ : 101-150 seconds)”.
For OC(COCCN1CCOCC1)c1ccccc1 (stereo not drawn) [compound 8], the Antiamnesic activity was “+ (+ : 61-100 seconds)”.
For CN(C)CCOCC(O)c1cccc(Oc2ccccc2)c1 (stereo not drawn) [compound 53], the Antiamnesic activity was “+++ (+++ : 151-300 seconds)”.
For CN(CCOCC(O)c1ccccc1)C(=O)C1CCC(=O)N1 (stereo not drawn) [compound 160], the Antiamnesic activity was “++ (++ : 101-150 seconds)”.
CN(C)CCOCC(O)c1ccc(Oc2ccc(F)cc2)cc1 (stereo not drawn) [compound 67] was tested, and the Antiamnesic activity was “++ (++ : 101-150 seconds)”.
In the case of CN(C)CCOCC(O)c1ccc2c(c1)OCO2 (stereo not drawn) [compound 52], the Antiamnesic activity is reported as “+ (+ : 61-100 seconds)”.
For Cc1cccc(C(O)COCCC2CCN(Cc3ccccc3)CC2)c1 (stereo not drawn) [compound 61], the Antiamnesic activity was “++ (++ : 101-150 seconds)”.
CCN(CC)CCOCC(O)c1cccc2ccccc12 (stereo not drawn) [compound 243] was tested, and the Antiamnesic activity was “++ (++ : 101-150 seconds)”.
In the case of CN(C)CCOCC(O)c1ccc(Oc2ccccc2Cl)cc1 (stereo not drawn) [compound 70], the Antiamnesic activity is reported as “++ (++ : 101-150 seconds)”.
In the case of CN(C)CCOCC(O)c1ccccc1 (stereo not drawn) [compound 2], the Antiamnesic activity is reported as “+ (+ : 61-100 seconds)”.
For Cc1cccc(C(O)COCCC2CCNCC2)c1 (stereo not drawn) [compound 176], the Antiamnesic activity was “++ (++ : 101-150 seconds)”.
For CN(C)CCOC[C@H](O)c1ccccc1 [compound 3], the Antiamnesic activity was “+++ (+++ : 151-300 seconds)”.

Same assay, conditions: dosage 10 mg/Kg intraperitoneally, median response latency of 10 mice
In the case of CN(C)CCOCC(O)c1ccc2ncccc2c1 (stereo not drawn) [compound 319], the Antiamnesic activity is reported as “++ (++ : 101-150 seconds)”.
With Cc1cccc(C(O)COCCCCN(C)C)c1 (stereo not drawn) [compound 23] the Antiamnesic activity was “+ (+ : 61-100 seconds)”.
With COc1ccc(C(O)COCCN(C)C)c2ccccc12 (stereo not drawn) [compound 239] the Antiamnesic activity was “+ (+ : 61-100 seconds)”.
For CN(C)CCOCC(O)c1cccc(Cc2ccccc2)c1 (stereo not drawn) [compound 58], the Antiamnesic activity was “++ (++ : 101-150 seconds)”.
For COc1ccc(C(O)COCCN(C)C)cc1 (stereo not drawn) [compound 44], the Antiamnesic activity was “++ (++ : 101-150 seconds)”.

Each compound was assayed on ddY male mouse (assay: Cycloheximide-induced amnesia, step-down passive avoidance). Details: dosage 3 mg/Kg orally, median response latency of 10 mice.
Assay type: in vivo
For CN(C)CCOCC(O)c1ccc(Oc2ccccc2)cc1 (stereo not drawn) [Compound No. 54, 2-[2-(N,N-dimethylamino)ethoxy]-1-[4-(4-phenyloxy)phenyl]ethanol hydrochloride], the Antiamnesic activity was “++ (++ : 101-150 seconds)”.
For Cc1ccc2cccc(C(O)COCCN(C)C)c2c1 (stereo not drawn) [compound 244], the Antiamnesic activity was “++ (++ : 101-150 seconds)”.
In the case of OC(COCCN1CCOCC1)c1ccc(OCc2ccccc2)cc1 (stereo not drawn) [compound 100], the Antiamnesic activity is reported as “++ (++ : 101-150 seconds)”.
CC(C)NCCOCC(O)c1cccc2ccccc12 (stereo not drawn) [compound 262] was tested, and the Antiamnesic activity was “+ (+ : 61-100 seconds)”.
In the case of O=C1CCc2cc(C(O)COCc3cccnc3)ccc2N1 (stereo not drawn) [compound 341], the Antiamnesic activity is reported as “+ (+ : 61-100 seconds)”.
With OC(COCCNC12CC3CC(CC(C3)C1)C2)c1ccc2sccc2c1 (stereo not drawn) [compound 353] the Antiamnesic activity was “+ (+ : 61-100 seconds)”.
CN(C)CCOCC(O)c1ccc2c(c1)CCCC2 (stereo not drawn) [compound 251] was tested, and the Antiamnesic activity was “+++ (+++ : 151-300 seconds)”.
For Cc1ccccc1-c1ccc(C(O)COCCN(C)C)cc1 (stereo not drawn) [compound 65], the Antiamnesic activity was “++ (++ : 101-150 seconds)”.
In the case of CC(=O)OC(COCCN1CCOCC1)c1cccc(C)c1 (stereo not drawn) [compound 178, 1-acetoxy-1-(3-methylphenyl)-2-[2-(morpholin-4-yl)ethoxy]ethane], the Antiamnesic activity is reported as “+++ (+++ : 151-300 seconds)”.
For CC(COCC(O)c1ccc2sccc2c1)N(C)C (stereo not drawn) [compound 338], the Antiamnesic activity was “++ (++ : 101-150 seconds)”.
In the case of CN(C)CCOCC(O)c1ccc(OCc2ccc(Cl)cc2)cc1 (stereo not drawn) [compound 49], the Antiamnesic activity is reported as “++ (++ : 101-150 seconds)”.
For CN(C)CCOCC(O)c1ccc2c(c1)OCCO2 (stereo not drawn) [compound 194], the Antiamnesic activity was “+ (+ : 61-100 seconds)”.
With Cc1cccc(C(O)COCCN2CCCC2=O)c1 (stereo not drawn) [compound 25] the Antiamnesic activity was “+ (+ : 61-100 seconds)”.
For OC(COCc1cccnc1)c1ccc2sccc2c1 (stereo not drawn) [compound 340], the Antiamnesic activity was “+ (+ : 61-100 seconds)”.
For CN(C)CCOCC(O)c1ccnc2ccccc12 (stereo not drawn) [compound 317], the Antiamnesic activity was “++ (++ : 101-150 seconds)”.
With CCN(CC)CCOCC(O)c1ccc2ccccc2c1 (stereo not drawn) [compound 248] the Antiamnesic activity was “++ (++ : 101-150 seconds)”.
In the case of CN(CCOCC(O)c1cccc2ccccc12)Cc1ccccc1 (stereo not drawn) [compound 241], the Antiamnesic activity is reported as “++ (++ : 101-150 seconds)”.
In the case of O=C(c1ccc(F)cc1)C1CCN(CCOCC(O)c2ccc3sccc3c2)CC1 (stereo not drawn) [compound 350], the Antiamnesic activity is reported as “++ (++ : 101-150 seconds)”.
In the case of O[C@@H](COC[C@@H]1CNCCO1)c1ccccc1 [compound 219, (1R,2'S)-1-phenyl-2-[(morpholin-2-yl)methoxy]ethanol maleate], the Antiamnesic activity is reported as “+ (+ : 61-100 seconds)”.
Cc1ccc(Oc2ccc(C(O)COCCN(C)C)cc2)cc1 (stereo not drawn) [compound 83] was tested, and the Antiamnesic activity was “+ (+ : 61-100 seconds)”.
In the case of CN(C)CCOCC(O)c1cccc2ccsc12 (stereo not drawn) [compound 320], the Antiamnesic activity is reported as “++ (++ : 101-150 seconds)”.
CN(C)CCOCC(O)c1ccc(Cl)c2ccccc12 (stereo not drawn) [compound 230] was tested, and the Antiamnesic activity was “+ (+ : 61-100 seconds)”.
With CN(C)CCOCC(O)c1ccc2[nH]ccc2c1 (stereo not drawn) [compound 365] the Antiamnesic activity was “+ (+ : 61-100 seconds)”.
In the case of OC(COCC1CNCCO1)c1cccc2ccccc12 (stereo not drawn) [compound 257, 1-(1-naphthyl)-2-[(mropholin-2-yl)methoxy]ethanol hydrochloride], the Antiamnesic activity is reported as “+ (+ : 61-100 seconds)”.
In the case of CN(C)CCOCC(O)c1cccc2ccc(Cl)cc12 (stereo not drawn) [compound 246], the Antiamnesic activity is reported as “++ (++ : 101-150 seconds)”.
With OC(COCCC1CCN(Cc2ccccc2)CC1)c1ccccc1 (stereo not drawn) [compound 60] the Antiamnesic activity was “+++ (+++ : 151-300 seconds)”.
For OC(COCC1CN(Cc2ccccc2)CCO1)c1ccc(Oc2ccccc2)cc1 (stereo not drawn) [compound 147], the Antiamnesic activity was “+++ (+++ : 151-300 seconds)”.
In the case of OC(COCC1CNCCO1)c1cccc(Cl)c1 (stereo not drawn) [compound 153], the Antiamnesic activity is reported as “++ (++ : 101-150 seconds)”.
With CN(C)CCOCC(O)c1cccc2sccc12 (stereo not drawn) [compound 333] the Antiamnesic activity was “+ (+ : 61-100 seconds)”.
In the case of CN(C)CCCOCC(O)c1cccc2ccccc12 (stereo not drawn) [compound 233], the Antiamnesic activity is reported as “+ (+ : 61-100 seconds)”.
With Cc1ccccc1C(O)COCCN(C)C (stereo not drawn) [compound 14] the Antiamnesic activity was “+++ (+++ : 151-300 seconds)”.
With CN(C)CCCCOCC(O)c1cccc2ccccc12 (stereo not drawn) [compound 234] the Antiamnesic activity was “+ (+ : 61-100 seconds)”.
In the case of CN(C)CCOCC(O)c1nccn1-c1ccccc1 (stereo not drawn) [compound 367], the Antiamnesic activity is reported as “+++ (+++ : 151-300 seconds)”.
For OC(COCCN1CCCCC1)c1ccc2ccccc2c1 (stereo not drawn) [compound 238], the Antiamnesic activity was “+ (+ : 61-100 seconds)”.
CC(C)NCCOCC(O)c1ccc(OCc2ccccc2)cc1 (stereo not drawn) [compound 196] was tested, and the Antiamnesic activity was “+++ (+++ : 151-300 seconds)”.
In the case of CN(C)CCOCC(O)c1ccc(OCc2cccc(O)c2)cc1 (stereo not drawn) [compound 82], the Antiamnesic activity is reported as “++ (++ : 101-150 seconds)”.
In the case of OC(COCC1CNCCO1)c1ccccc1 (stereo not drawn) [compound 151, 1-phenyl-2-[(morpholin-2-yl)methoxy]ethanol], the Antiamnesic activity is reported as “+++ (+++ : 151-300 seconds)”.
With CN(C)CCOCC(O)c1ccc(-c2ccccc2)cc1 (stereo not drawn) [compound 56] the Antiamnesic activity was “+ (+ : 61-100 seconds)”.
OC(COCCN1CCN(c2ncccn2)CC1)c1ccc2sccc2c1 (stereo not drawn) [compound 352] was tested, and the Antiamnesic activity was “++ (++ : 101-150 seconds)”.
With CN(C)CCOCC(O)c1ccc(Cl)s1 (stereo not drawn) [compound 368] the Antiamnesic activity was “+ (+ : 61-100 seconds)”.

Same assay, conditions: dosage 10 mg/Kg orally, median response latency of 10 mice
For Cc1ccc(C(O)COCCN(C)C)c2ccccc12 (stereo not drawn) [compound 232], the Antiamnesic activity was “++ (++ : 101-150 seconds)”.
For CN(C)CCOCC(O)c1cc2ccccc2s1 (stereo not drawn) [compound 324], the Antiamnesic activity was “++ (++ : 101-150 seconds)”.
With OC(COCCN1CCc2ccccc2C1)c1ccccc1 (stereo not drawn) [compound 165] the Antiamnesic activity was “+ (+ : 61-100 seconds)”.
Cc1cccc(C(O)COC(C)CN(C)C)c1 (stereo not drawn) [compound 28] was tested, and the Antiamnesic activity was “+ (+ : 61-100 seconds)”.
OC(COCc1cnc[nH]1)c1cccc2ccccc12 (stereo not drawn) [compound 280] was tested, and the Antiamnesic activity was “+ (+ : 61-100 seconds)”.
For O=C1CCCN1CCOCC(O)c1ccccc1 (stereo not drawn) [compound 9], the Antiamnesic activity was “+ (+ : 61-100 seconds)”.
In the case of CC(=O)N(C)CCOCC(O)c1ccccc1 (stereo not drawn) [compound 181], the Antiamnesic activity is reported as “++ (++ : 101-150 seconds)”.
For Cc1ccc(C(O)COCCN(C)C)cc1 (stereo not drawn) [compound 16], the Antiamnesic activity was “+ (+ : 61-100 seconds)”.
In the case of CN(C)CCOCC(O)c1ccc(OCc2ccccn2)cc1 (stereo not drawn) [compound 84], the Antiamnesic activity is reported as “++ (++ : 101-150 seconds)”.
In the case of OC(COCc1cccnc1)c1ccc2occc2c1 (stereo not drawn) [compound 339, 1-(benzo[b]furan-5-yl)-2-(pyridin-3-yl-methxoy)ethanol], the Antiamnesic activity is reported as “+ (+ : 61-100 seconds)”.
For OC(COCCN1CCCCC1)c1ccccc1 (stereo not drawn) [compound 7], the Antiamnesic activity was “+ (+ : 61-100 seconds)”.
With OC(COCc1c[nH]cn1)c1ccc2sccc2c1 (stereo not drawn) [compound 358, 1-(benzo[b]thiophen-5-yl)-2-[(imidazolyl)methoxy]ethanol] the Antiamnesic activity was “++ (++ : 101-150 seconds)”.
O[C@@H](COC[C@H]1CNCCO1)c1ccccc1 [compound 221, (1R,2'R)-1-phenyl-2-[(morpholin-2-yl)methoxy]ethanol oxalate] was tested, and the Antiamnesic activity was “+ (+ : 61-100 seconds)”.
CN(C)CCOCC(O)c1ccc2cc(Cl)ccc2c1 (stereo not drawn) [compound 245] was tested, and the Antiamnesic activity was “++ (++ : 101-150 seconds)”.
For O[C@H](COC[C@H]1CNCCO1)c1ccccc1 [compound 220, (1S,2'R)-1-phenyl-2-[(morpholin-2-yl)methoxy]ethanol maleate], the Antiamnesic activity was “++ (++ : 101-150 seconds)”.
C[N+](C)(C)CCOCC(O)c1ccc(OCc2ccccc2)cc1 (stereo not drawn) [compound 110] was tested, and the Antiamnesic activity was “++ (++ : 101-150 seconds)”.
In the case of OC(COCCNC1CC1)c1cccc2ccccc12 (stereo not drawn) [compound 263], the Antiamnesic activity is reported as “+ (+ : 61-100 seconds)”.
In the case of OC(COCC1CNCCO1)c1ccc2sccc2c1 (stereo not drawn) [compound 343], the Antiamnesic activity is reported as “++ (++ : 101-150 seconds)”.
CN(C)CCOCC(O)c1ccc2occc2c1 (stereo not drawn) [compound 325] was tested, and the Antiamnesic activity was “++ (++ : 101-150 seconds)”.
